Source: PMC4336329 (PLoS ONE, 2015)
Out of some 310,000 compounds screened, about 2,200 (0.71%) showed an effect of 50% or more. Effects have a minus sign here. The list shows a part of the results.

Biological target: human ether-à-go-go-related gene (hERG) potassium channel (human, UniProt Q12809)
Test: primary screen, population patch clamp on CHO cells stably expressing hERG

Sequence of human ether-à-go-go-related gene (hERG) potassium channel (Q12809 whole entry, looked up): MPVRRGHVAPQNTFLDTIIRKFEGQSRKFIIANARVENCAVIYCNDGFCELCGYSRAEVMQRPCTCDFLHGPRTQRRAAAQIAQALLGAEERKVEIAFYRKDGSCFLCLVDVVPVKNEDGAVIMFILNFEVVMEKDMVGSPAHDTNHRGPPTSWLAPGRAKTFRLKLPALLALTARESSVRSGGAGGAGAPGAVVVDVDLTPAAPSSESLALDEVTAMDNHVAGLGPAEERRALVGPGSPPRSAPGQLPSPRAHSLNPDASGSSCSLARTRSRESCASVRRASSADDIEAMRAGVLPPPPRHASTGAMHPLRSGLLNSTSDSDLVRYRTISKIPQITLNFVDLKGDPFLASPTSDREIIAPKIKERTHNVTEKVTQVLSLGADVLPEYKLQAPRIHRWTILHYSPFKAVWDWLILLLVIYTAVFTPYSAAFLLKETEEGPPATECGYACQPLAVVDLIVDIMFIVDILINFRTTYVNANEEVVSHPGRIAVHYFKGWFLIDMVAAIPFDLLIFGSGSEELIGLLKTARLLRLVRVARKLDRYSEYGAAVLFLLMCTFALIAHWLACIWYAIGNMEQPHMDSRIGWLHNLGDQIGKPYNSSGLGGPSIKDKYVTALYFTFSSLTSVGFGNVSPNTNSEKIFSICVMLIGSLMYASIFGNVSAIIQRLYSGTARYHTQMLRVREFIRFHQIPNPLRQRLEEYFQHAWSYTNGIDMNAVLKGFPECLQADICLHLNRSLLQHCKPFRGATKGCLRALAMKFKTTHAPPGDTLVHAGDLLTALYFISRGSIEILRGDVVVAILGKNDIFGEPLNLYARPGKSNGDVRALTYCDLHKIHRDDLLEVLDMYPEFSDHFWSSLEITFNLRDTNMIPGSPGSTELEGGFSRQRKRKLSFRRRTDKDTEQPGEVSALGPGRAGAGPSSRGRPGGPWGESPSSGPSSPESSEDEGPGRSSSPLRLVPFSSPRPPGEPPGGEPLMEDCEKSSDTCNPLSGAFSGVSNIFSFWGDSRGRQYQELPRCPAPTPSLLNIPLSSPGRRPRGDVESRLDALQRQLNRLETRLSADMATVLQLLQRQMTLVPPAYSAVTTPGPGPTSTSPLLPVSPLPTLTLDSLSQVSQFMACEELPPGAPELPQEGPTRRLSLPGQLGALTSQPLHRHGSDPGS

Compound	hERG current change (%, negative = inhibition) at 1uM
CCc1ccc(NC(=O)CCN2C(=O)c3cccnc3C2=O)cc1	8.16%
CCCCN(CC)CCNC(=O)C1CCCN(S(=O)(=O)c2cccc3nsnc23)C1 (stereo not drawn)	-1.02%
COCCN(C(=O)CCC(=O)Nc1ccccn1)C(C(=O)NC1CCCC1)c1ccc(OC)cc1 (stereo not drawn)	10.2%
Cc1ccc2nc(-c3ccncc3)cc(C(=O)Nc3ccncc3)c2c1	9.22%
CCc1cc(C(=O)NNC(=O)CCN2CCN(c3ccccc3)CC2)sc1C	11.5%
CC(=O)N1CCC(N(CCN2CCOCC2)C(=S)Nc2cc(C)cc(C)c2)CC1	7.36%
O=S(=O)(NCc1cccnc1)c1ccc2c(c1)OCCO2	2.54%
CCN(CC)c1ccc([N+](=O)[O-])cc1/C=N/NC(=O)CC#N	-1.88%
Cc1ccc(-c2nnc3n2N=C(c2ccc(Br)cc2)CS3)cc1	4.56%
CN(C)C1(CNC(=O)C2CCC(=O)N(CCc3ccc(Cl)cc3)C2)CCCCC1 (stereo not drawn)	4.39%
CN(C)S(=O)(=O)N1CCC(Oc2cccc(C(=O)NCCCC3CCCC3)c2)CC1	6.11%
O=C(Cc1ccccc1)NCC(=O)OCc1cccc([N+](=O)[O-])c1	12.2%
O=C(O)/C=C/C(=O)Nc1cc(F)ccc1F	14.8%
CCCCOc1nc2c(c(=O)n(C)c(=O)n2C)n1C	5.25%
Cc1cc(C)c(S(=O)(=O)N2CCCC2CNC(=O)c2ccc3c(c2)OCO3)c(C)c1 (stereo not drawn)	0.57%
O=C1C2(Cl)C3(Cl)C4(Cl)C(Cl)(Cl)C5(Cl)C3(Cl)C1(Cl)C5(Cl)C24Cl (stereo not drawn)	13.3%
COc1cc(C(=O)Nc2nnc(SC)s2)c([N+](=O)[O-])cc1OC	4.89%
S=c1[nH]nc(-c2ccccc2)n1/N=C/c1cccc(Cl)c1	14.3%
CSc1ccc(S(=O)(=O)N2CCC(C(=O)NCc3ccco3)CC2)cc1	18.7%

Compound	hERG current change (%, negative = inhibition) at 1uM
O=C(NC(=S)Nc1ccc2[nH]c(=O)[nH]c2c1)c1cc(Br)ccc1Cl	13.1%
CC[N+](C)(CC)CCC/C(=N/O)C(O)(c1ccccc1)c1ccccc1.[I-]	11.1%
COc1ccc(S(=O)(=O)Nc2cccc(Cl)c2)cc1OC	13.3%
O=C(NCC1CCCN(C(=O)CN2CCCCC2)C1)c1ccccc1Cl (stereo not drawn)	12.5%
O=C(NC1=NCCS1)C1CCCCC1	15.9%
O=C(C1=C[C@H](c2ccc(Br)cc2)C[C@H](OCc2ccc(CO)cc2)O1)N1CCN(Cc2ccc3c(c2)OCO3)CC1	-2.62%
CN(C)CCN(C(=O)c1cccc2ccccc12)c1nc2cc3c(cc2s1)OCO3.Cl	6.25%
CC(Oc1ccccc1F)c1nnc(SCC(=O)NCc2ccc3c(c2)OCO3)o1 (stereo not drawn)	-8.19%
COc1ccccc1NS(=O)(=O)c1cc(NC(=O)C2CCC2)ccc1N1CCCCC1	15.1%
Cc1cc(NC(=O)Nc2cc(Cl)ccc2C)no1	-1.78%
CCc1nn(CC(=O)N2CCN(c3ccc(OC)cc3)CC2)c(=O)c2cc3occc3n12	-5.86%
COc1ccc(CN2CCN(C(=O)CC(C)C)CC2)cc1Br	6.71%
COc1ccc(NS(=O)(=O)c2ccc(O)c(NC(=O)c3ccc(S(=O)(=O)N4CCCC4)cc3)c2)cc1	7.18%
c1ccc(CSc2snnc2-c2ccccc2)cc1	10.1%
CC(=O)N/C(=C/c1ccc2c(c1)OCO2)C(=O)NC(Cc1ccccc1)C(=O)O (stereo not drawn)	5.46%
Cc1cc(Cl)ccc1OCC(=O)NCCCCc1ccccc1	11.6%
CCC(C)(C)NC(=O)CN(Cc1ccc2c(c1)OCO2)C(=O)CCC(=O)Nc1nccs1	10.5%
CC(C)(C)NC(=O)C1Cc2ccccc2CN1 (stereo not drawn)	13.4%
Cc1ccc(C(CNS(=O)(=O)c2ccc(C)cc2)N2CCN(C)CC2)cc1 (stereo not drawn)	-27.8%

Compound	hERG current change (%, negative = inhibition) at 1uM
CN1CCN(c2ccc(NC(=O)N3CCc4ccccc43)cc2)CC1	2.29%
Cc1ccc(-c2cc(NC(=O)c3ccccc3)on2)cc1	15.1%
COCC(C)NC(=O)Cn1c(SCc2ccccc2)nc2ccccc21 (stereo not drawn)	3.78%
O=C(CSc1ncccn1)Nc1cc(Cl)ccc1[N+](=O)[O-]	16.5%
O=C(CSc1nnc(C2CC2)n1Cc1ccccc1)N1CCN(S(=O)(=O)c2ccccc2)CC1	-3.97%
O=C(COC(=O)c1ccccc1-n1cnnn1)c1ccc(F)c(F)c1	13%
COC(=O)CC1=NC(=O)CS1	2.46%
CCOc1ncccc1C(=O)NNC(=O)c1ccccc1-n1cccc1	12.9%
COCCSc1ccccc1C(=O)N1CCN(Cc2ccccc2)CC1	10.7%
Cc1nnc(SCC(=O)N2CCOCC2)s1	2.63%
C=CCNC(=O)c1onc(CS(=O)(=O)c2cc(C)cc(C)c2)c1C(=O)NCC=C	2.36%
COC(=O)c1ccncc1C(=O)Nc1ccc(F)cc1	19.4%
c1ccc2sc(C3CCCNC3)nc2c1 (stereo not drawn)	3.96%
CCOC(=O)C1CCN(Cc2nc3ccc([N+](=O)[O-])cc3c(=O)n2-c2ccc(OC)cc2OC)CC1	-3.1%
CCn1c(C)cc(C)c(C#N)c1=O	13.7%
CCC(=O)N1C(=O)C2(Nc3ccccc3N2)c2ccccc21	4.7%
COc1cc(SC)ccc1C(=O)N(CC(=O)Nc1ccccc1Br)Cc1ccco1	17.9%
COc1cc(/C=C2\CCCc3c2nc2ccccc2c3C(=O)O)cc(Br)c1O	12.1%
Cc1cc(C(=O)NCc2ccco2)sc1C	14.7%
